The list shows a part of the results.
Assays:
Assay in all cases: glycan array binding signal (z-score within array); higher = stronger binding
Conditions in all cases: glycan notation: IUPAC condensed, linker removed
[1] = molecular target: Fuc(a1-2)Gal
Procedure, shortened: (§1)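 Glycan array data were curated from 3228 arrays in the Consortium for Functional Glycomics database and kept only where the protein sequence was available. Glycan names were converted to IUPAC-condensed notation, and columns mapping to the same glycan were averaged. The binding signal is a within-array Z-score, averaged across arrays of the same protein sequence at different concentrations or buffers and across linkers. Negative Z-scores can be read as non-binding.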

[2] = molecular target: Fuc(a1-2)Gal(b1-3)GalNAc
Procedure, shortened: as §1

[3] = molecular target: Fuc(a1-2)Gal(b1-3)GalNAc(a1-3)[Fuc(a1-2)]Gal(b1-4)Glc
Procedure, shortened: as §1

[4] = molecular target: Fuc(a1-2)Gal(b1-3)GalNAc(a1-3)[Fuc(a1-2)]Gal(b1-4)GlcNAc
Procedure, shortened: as §1

[5] = molecular target: Fuc(a1-2)Gal(b1-3)GalNAc(b1-3)Gal
Procedure, shortened: as §1

[6] = molecular target: Fuc(a1-2)Gal(b1-3)GalNAc(b1-3)Gal(a1-4)Gal(b1-4)Glc
Procedure, shortened: as §1

[7] = molecular target: Fuc(a1-2)Gal(b1-3)GalNAc(b1-4)[Neu5Ac(a2-3)]Gal(b1-4)Glc
Procedure, shortened: as §1

[8] = molecular target: Fuc(a1-2)Gal(b1-3)GlcNAc
Procedure, shortened: as §1

[9] = molecular target: Fuc(a1-2)Gal(b1-3)GlcNAc(b1-2)Man(a1-3)[Fuc(a1-2)Gal(b1-3)GlcNAc(b1-2)Man(a1-6)]Man(b1-4)GlcNAc(b1-4)GlcNAc
Procedure, shortened: as §1

[10] = molecular target: Fuc(a1-2)Gal(b1-3)GlcNAc(b1-2)Man(a1-3)[Fuc(a1-2)Gal(b1-3)GlcNAc(b1-2)Man(a1-6)]Man(b1-4)GlcNAc(b1-4)[Fuc(a1-6)]GlcNAc
Procedure, shortened: as §1

[11] = molecular target: Fuc(a1-2)Gal(b1-3)GlcNAc(b1-3)Gal(b1-4)Glc
Procedure, shortened: as §1

[12] = molecular target: Fuc(a1-2)Gal(b1-3)GlcNAc(b1-3)GalNAc
Procedure, shortened: as §1

[13] = molecular target: Fuc(a1-2)Gal(b1-3)GlcNAc(b1-3)[Fuc(a1-2)Gal(b1-3)GlcNAc(b1-6)]GalNAc
Procedure, shortened: as §1

[14] = molecular target: Fuc(a1-2)Gal(b1-3)GlcNAc(b1-3)[Gal(b1-4)GlcNAc(b1-6)]Gal(b1-4)Glc
Procedure, shortened: as §1

[15] = molecular target: Fuc(a1-2)Gal(b1-3)GlcNAc(b1-3)[Neu5Ac(a2-6)Gal(b1-4)GlcNAc(b1-6)]Gal(b1-4)Glc
Procedure, shortened: as §1

[16] = molecular target: Fuc(a1-2)Gal(b1-3)GlcNAc6S
Procedure, shortened: as §1

[17] = molecular target: Fuc(a1-2)Gal(b1-3)[Fuc(a1-4)]GlcNAc
Procedure, shortened: as §1

[18] = molecular target: Fuc(a1-2)Gal(b1-3)[Fuc(a1-4)]GlcNAc(b1-2)Man(a1-3)[Fuc(a1-2)Gal(b1-3)[Fuc(a1-4)]GlcNAc(b1-2)Man(a1-3)]Man(b1-4)GlcNAc(b1-4)GlcNAc
Procedure, shortened: as §1

[19] = molecular target: Fuc(a1-2)Gal(b1-3)[Fuc(a1-4)]GlcNAc(b1-2)Man(a1-3)[Fuc(a1-2)Gal(b1-3)[Fuc(a1-4)]GlcNAc(b1-2)Man(a1-6)]Man(b1-4)GlcNAc(b1-4)[Fuc(a1-6)]GlcNAc(b1-4)[Fuc(a1-6)]GlcNAc
Procedure, shortened: as §1

[20] = molecular target: Fuc(a1-2)Gal(b1-3)[Fuc(a1-4)]GlcNAc(b1-3)[Fuc(a1-3)[Gal(b1-4)]GlcNAc(b1-6)]Gal(b1-4)Glc
Procedure, shortened: as §1

[21] = molecular target: Fuc(a1-2)Gal(b1-3)[Fuc(a1-4)]GlcNAc(b1-3)[Gal(b1-4)GlcNAc(b1-6)]Gal(b1-4)Glc
Procedure, shortened: as §1

[22] = molecular target: Fuc(a1-2)Gal(b1-4)Glc
Procedure, shortened: as §1

[23] = molecular target: Fuc(a1-2)Gal(b1-4)Glc6S
Procedure, shortened: as §1

[24] = molecular target: Fuc(a1-2)Gal(b1-4)GlcNAc
Procedure, shortened: as §1

[25] = molecular target: Fuc(a1-2)Gal(b1-4)GlcNAc(b1-2)Man
Procedure, shortened: as §1

[26] = molecular target: Fuc(a1-2)Gal(b1-4)GlcNAc(b1-2)Man(a1-3)[Fuc(a1-2)Gal(b1-4)GlcNAc(b1-2)Man(a1-6)]Man(b1-4)GlcNAc(b1-4)GlcNAc
Procedure, shortened: as §1

[27] = molecular target: Fuc(a1-2)Gal(b1-4)GlcNAc(b1-2)Man(a1-3)[Fuc(a1-2)Gal(b1-4)GlcNAc(b1-2)Man(a1-6)]Man(b1-4)GlcNAc(b1-4)[Fuc(a1-6)]GlcNAc
Procedure, shortened: as §1

[28] = molecular target: Fuc(a1-2)Gal(b1-4)GlcNAc(b1-2)[Fuc(a1-2)Gal(b1-4)GlcNAc(b1-4)]Man(a1-3)[Fuc(a1-2)Gal(b1-4)GlcNAc(b1-2)Man(a1-6)]Man(b1-4)GlcNAc(b1-4)GlcNAc
Procedure, shortened: as §1

[29] = molecular target: Fuc(a1-2)Gal(b1-4)GlcNAc(b1-3)Gal(b1-4)GlcNAc
Procedure, shortened: as §1

[30] = molecular target: Fuc(a1-2)Gal(b1-4)GlcNAc(b1-3)Gal(b1-4)GlcNAc(b1-2)Man(a1-3)[Fuc(a1-2)Gal(b1-4)GlcNAc(b1-3)Gal(b1-4)GlcNAc(b1-2)Man(a1-6)]Man(b1-4)GlcNAc(b1-4)GlcNAc
Procedure, shortened: as §1

B1: Epa13 (Candida glabrata) (protein)
chain: MGSSHHHHHHSSGLVPRGSHMASDSSENGYAHGCSPSIRAKLKPGLSMEIYSYALRPTDDHCWDSAYLDPMFPRTGYLTHKLLGKAEGIIGPLNFLAKNPACIPAVSTLPLAFHFPKPFTITNFTMLLYGYLSPKKTGKYTFKLLADDLLLMNFGADNAFDCCSHDATKDNIGEYVAYSVWPGVNKNVTVYLESGIYYPLRLFFNNRDAIAQLDFAYYFNDSPIRQTDFSGMFFSIPDSVKCPANI
[1]
  glycan array binding signal (z-score): -0.46
[2]
  glycan array binding signal (z-score): -0.298
[3]
  glycan array binding signal (z-score): -0.365
[4]
  glycan array binding signal (z-score): -0.269
[5]
  glycan array binding signal (z-score): 0.112
[6]
  glycan array binding signal (z-score): -0.036
[7]
  glycan array binding signal (z-score): -0.255
[8]
  glycan array binding signal (z-score): -0.422
[9]
  glycan array binding signal (z-score): -0.07
[10]
  glycan array binding signal (z-score): -0.493
[11]
  glycan array binding signal (z-score): -0.434
[12]
  glycan array binding signal (z-score): -0.447
[13]
  glycan array binding signal (z-score): 0.191
[14]
  glycan array binding signal (z-score): -0.241
[15]
  glycan array binding signal (z-score): -0.32
[16]
  glycan array binding signal (z-score): -0.001
[17]
  glycan array binding signal (z-score): -0.516
[18]
  glycan array binding signal (z-score): 0.221
[19]
  glycan array binding signal (z-score): -0.221
[20]
  glycan array binding signal (z-score): -0.604
[21]
  glycan array binding signal (z-score): -0.097
[22]
  glycan array binding signal (z-score): -0.492
[23]
  glycan array binding signal (z-score): 0.064
[24]
  glycan array binding signal (z-score): -0.472
[25]
  glycan array binding signal (z-score): 0.385
[26]
  glycan array binding signal (z-score): -0.344
[27]
  glycan array binding signal (z-score): -0.168
[28]
  glycan array binding signal (z-score): -0.499
[29]
  glycan array binding signal (z-score): -0.413
[30]
  glycan array binding signal (z-score): -0.157
